# The supplement of paper PMC9446081
# Hit rate of the full screen: of about 39,000 compounds, about 220 (0.56%) showed activity. The list shows a part of the results.
# System: Escherichia coli K-12 BW25113
# Assay: relative growth (OD600 normalised to plate interquartile mean) (fraction); higher = less growth inhibition, active = 0.2 or less
# Settings: 50 µM; LB; incubation time: overnight (16-24 h)
# 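Note: static incubation at 37 °C against the wild-type strain, values averaged over two biological replicates.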
row,Structure (SMILES),relative growth
1,C[C@H](CO)N1C[C@H](C)[C@@H](CN(C)C(=O)Nc2cccc3ccccc23)OCCCC[C@H](C)Oc2ccc(NC(=O)Cc3ccccc3)cc2C1=O,inactive: 1.04
2,C[C@H]1CN([C@@H](C)CO)C(=O)Cc2cc(NC(=O)Nc3cccc4ccccc34)ccc2O[C@@H]1CN(C)S(=O)(=O)c1ccc(F)cc1,inactive: 1.02
3,C[C@@H]1CN([C@H](C)CO)C(=O)Cc2cc(NC(=O)Cc3cn(C)c4ccccc34)ccc2O[C@H]1CN(C)Cc1ccc(C(=O)Nc2ccccc2N)cc1,inactive: 1.02
4,C[C@@H]1CN([C@@H](C)CO)C(=O)c2cccc(NS(=O)(=O)c3cn(C)cn3)c2O[C@@H]1CN(C)C(=O)Nc1ccc(F)cc1,inactive: 0.996
5,CCCCN[C@H]1CCS(=O)(=O)C1,inactive: 0.994
6,C=CCCC(=O)N(C)[C@H](C)[C@@H](OC(=O)[C@@H]1[C@@H]2C=C[C@]3(O2)[C@H](CN(CC=C)Cc2ccccc2)N(C(C)(C)C)C(=O)[C@@H]13)c1ccccc1,inactive: 1.01
7,O=c1n(C[C@H]2CO2)c(=O)n(C[C@H]2CO2)c(=O)n1C[C@H]1CO1,inactive: 1.01
8,C[C@H]1CN([C@@H](C)CO)S(=O)(=O)c2ccc(C#Cc3cccc(F)c3)cc2O[C@@H]1CN(C)S(=O)(=O)c1ccccc1F,inactive: 0.976
9,Cc1noc(C)c1NC(=O)Nc1cccc2c1O[C@@H](CN(C)S(C)(=O)=O)[C@@H](C)CN([C@@H](C)CO)C2=O,inactive: 0.998
10,COc1ccc(CN(C)C[C@@H]2Oc3ccc(NC(=O)CCN4CCOCC4)cc3CC(=O)N([C@@H](C)CO)C[C@@H]2C)cc1,inactive: 0.975
11,COC1=CC(=O)CC(C)C12Oc1c(Cl)c(OC)cc(OC)c1C2=O (stereo unspecified),inactive: 1.08
12,COc1ccc(NC(=O)Nc2ccc3c(c2)C(=O)N([C@@H](C)CO)C[C@@H](C)[C@@H](CN(C)S(=O)(=O)c2ccc(F)cc2)OCCCC[C@H](C)O3)cc1,inactive: 1.02
13,CC(C)NC(=O)Nc1ccc2c(c1)CC(=O)N([C@@H](C)CO)C[C@@H](C)[C@H](CN(C)S(=O)(=O)c1ccc(F)cc1)O2,inactive: 1
14,C[C@@H]1CN([C@H](C)CO)C(=O)c2cc(NS(=O)(=O)c3cccs3)ccc2O[C@@H]1CN(C)Cc1ccc(Oc2ccccc2)cc1,inactive: 0.944
15,C[C@H](O)C#Cc1ccc2c(c1)O[C@H](CN(C)C(=O)c1ccccc1)[C@H](C)CN([C@@H](C)CO)S2(=O)=O,inactive: 1.01
16,COc1ccc(S(=O)(=O)N(C)C[C@@H]2Oc3c(NC(=O)c4ccncc4)cccc3C(=O)N([C@@H](C)CO)C[C@@H]2C)cc1,inactive: 0.995
